Measurements published in PubChem BioAssay AID588591 (National Center for Advancing Translational Sciences (NCATS), 2011).
Screen size: about 390,000 compounds; about 4,700 (1.2%) were called active. Inconclusive results, whose numbers are uncertain, are shown with a selection of clear calls. Calls follow the shape of the dose curve; as a rule, active = well fitted inhibition curve with a large enough effect; inconclusive = small, poorly fitted or top-dose-only effect, or another doubt; inactive = no such curve, though single readings can be large or run the other way. A potency beside an inconclusive call is a rough fit, not a confirmed value.

Target: DNA polymerase eta (Homo sapiens) (UniProt Q9Y253)
UniProt Q9Y253, sequence (Q9Y253 whole entry, looked up): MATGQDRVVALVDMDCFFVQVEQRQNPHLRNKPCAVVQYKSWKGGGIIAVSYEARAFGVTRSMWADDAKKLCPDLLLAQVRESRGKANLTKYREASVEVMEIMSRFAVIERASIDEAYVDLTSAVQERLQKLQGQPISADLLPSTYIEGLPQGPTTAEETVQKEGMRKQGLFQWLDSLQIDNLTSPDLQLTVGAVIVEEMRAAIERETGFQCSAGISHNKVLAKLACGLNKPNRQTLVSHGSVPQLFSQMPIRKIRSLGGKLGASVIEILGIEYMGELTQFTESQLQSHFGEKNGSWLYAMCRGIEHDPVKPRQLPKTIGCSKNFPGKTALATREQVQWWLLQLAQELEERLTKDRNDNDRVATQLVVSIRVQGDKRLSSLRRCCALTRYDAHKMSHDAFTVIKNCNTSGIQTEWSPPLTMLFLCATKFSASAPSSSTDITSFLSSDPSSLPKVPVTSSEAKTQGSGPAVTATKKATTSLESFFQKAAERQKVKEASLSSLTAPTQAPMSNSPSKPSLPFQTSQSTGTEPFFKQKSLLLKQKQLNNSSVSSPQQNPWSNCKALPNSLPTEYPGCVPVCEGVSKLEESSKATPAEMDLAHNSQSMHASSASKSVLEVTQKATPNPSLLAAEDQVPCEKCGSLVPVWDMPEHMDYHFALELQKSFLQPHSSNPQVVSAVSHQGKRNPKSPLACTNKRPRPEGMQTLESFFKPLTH
Experiment: qHTS for Inhibitors of Polymerase Eta
Conditions: recombinant Pol eta, fluorescent DNA replication assay; series mostly up to 114 µM
How it was run: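 Pol eta (10 nM) was preincubated with compounds for 15 min at room temperature, after which fluorescent replication substrate (50 nM final) was added to start the reaction. Fluorescence was read kinetically at 0 and 10 min.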
Potency is read from the fitted curve at half-maximal effect; tags tell the direction and shape of the fitted curve.

| SMILES | Potency |
| --- | --- |
| Cc1ccn2c(=O)c(C(=O)O)cnc2c1 | inactive |
| COc1ccccc1NC(=O)C1=C(C)Nc2c(C(=O)Nc3ccc(F)cc3)cnn2C1c1cccc([N+](=O)[O-])c1 (centres undefined) | inactive |
| CC(=O)N1CCc2cc(Br)cc(S(=O)(=O)N3CCN(c4cccc(C(F)(F)F)c4)CC3)c21 | inactive |
| CCOc1cc(/C=C2\C(=O)ON=C2c2ccccc2)ccc1OC | inactive |
| Nc1nnc(CC(=O)N/N=C/c2cc([N+](=O)[O-])cc(Br)c2O)s1 | inconclusive: 15.8 µM [inhibitor, full curve] |
| CCCCOc1ccc(-c2nn(-c3ccccc3)cc2C2NC(=O)NC(C)=C2C(=O)OC)cc1 (centres undefined) | inconclusive: 50.1 µM [inhibitor, partial curve, poor fit] |
| O=C(Nc1ccc(F)cc1)Nc1ccc(N2CCCC2)c(S(=O)(=O)Nc2ccccc2Cl)c1 | inconclusive: 79.4 µM [inhibitor, partial curve, poor fit] |
| S=c1[nH]nc(-c2cccc(Cl)c2)n1/N=C/c1ccc(-c2ccccc2Br)o1 | inconclusive: 39.8 µM [inhibitor, partial curve, poor fit] |
| COc1ccccc1Nc1nnc(SCC(=O)Nc2cc(C)on2)s1 | inconclusive: 14.1 µM [inhibitor, partial curve] |
| COc1ccc(Cl)cc1NC(=O)c1c(NCc2ccc(C)o2)sc2c1CCCCC2 | inconclusive: 89.1 µM [inhibitor, single point] |
| COc1cc([N+](=O)[O-])cc(/C=N/NC(=O)c2cccnc2)c1O | inconclusive: 31.6 µM [inhibitor, partial curve, poor fit] |
| CSc1ncc2c(n1)-c1ccccc1N(Cc1ccc(Cl)cc1)S2(=O)=O | inactive |
| C=CC[C@@H](CC(=O)OC(C)(C)C)C(=O)OC[C@@H]1CCCN1C(=O)[C@@H](CC=C)CC(=O)N(CCO)Cc1ccccc1 | inconclusive: 79.4 µM [inhibitor, partial curve, poor fit] |
| O=C(CCS(=O)(=O)c1ccc(Br)cc1)Nc1ccc(Br)cc1F | inconclusive: 28.2 µM [inhibitor, partial curve, poor fit] |
| Cc1ccc(NC(=O)CN2C(=O)S/C(=C\c3cc(Cl)c(OCC(=O)O)c(Cl)c3)C2=O)cc1 | active: 25.1 µM |
| COc1cc(-c2nn3c(-c4ccccc4)nnc3s2)cc(OC)c1OC | inconclusive: 22.4 µM [inhibitor, partial curve, poor fit] |
| COc1cccc(C(=O)Nc2cc(C(=O)NCCc3ccccc3)ccc2Cl)c1 | inactive |
| COc1ccc(NC(=O)c2ccco2)cc1NC(=O)COc1ccc(C)cc1C | inconclusive: 89.1 µM [inhibitor, partial curve, poor fit] |
| CC1(C)CC[C@]2(C(=O)O[C@@H]3OC(CO)[C@@H](O)[C@H](O)[C@H]3O)CC[C@]3(C)C(=CCC4[C@@]5(C)CC[C@H](O[C@@H]6OC(C(=O)O)[C@@H](O)[C@H](O)[C@H]6O)C(C)(C)C5CC[C@]43C)[C@@H]2C1 (some centres undefined) | inconclusive: 89.1 µM [inhibitor, single point] |
| CCNc1nc(NCC)n2c(SCC(=O)Nc3ccccc3)nnc2n1 | inactive |

| SMILES | Potency |
| --- | --- |
| C#CCOCCOCCOCCNc1nc(N2CCN(C(=O)CCCCCCCCCCNC(=O)[C@H](CO)n3cc(CCCSC)nn3)CC2)nc(N2CCN(C(=O)CCCCCCCCCCNC(=O)[C@H](CCCCN)n3cc(CCO)nn3)CC2)n1 | inconclusive: 89.1 µM [inhibitor, single point] |
| O=C(O)c1cccc(Nc2nc(-c3cccnc3)nc3ccccc23)c1 | inconclusive: 11.2 µM [inhibitor, full curve, poor fit] |
| O=C(Nc1nc(-c2ccco2)c(-c2ccco2)s1)c1c(F)cccc1Cl | inconclusive: 22.4 µM [inhibitor, full curve, poor fit] |
| CCOC(=O)/C(C#N)=C/Nc1ccccc1NS(=O)(=O)c1cccc(C(C)=O)c1 | inconclusive: 79.4 µM [inhibitor, partial curve, poor fit] |
| CC(=O)c1c(O)cc(O)cc1CC(=O)O | inconclusive: 25.1 µM [inhibitor, full curve] |
| COc1ccc(-c2coc3c(C)c4oc(=O)c(CCC(=O)O)c(C)c4cc23)cc1 | active: 50.1 µM |
| CC1CC(N(C(=O)c2ccccc2Cl)c2ccccc2)c2ccccc2N1 (centres undefined) | inconclusive: 89.1 µM [inhibitor, partial curve, poor fit] |
| CCOC(=O)Cc1csc(-n2sc3ccccc3c2=O)n1 | active: 39.8 µM |
| CC(=O)N1N=C(c2ccc(Cl)cc2)CC1c1ccco1 (centres undefined) | inactive |
| CCc1ccc(S(=O)(=O)c2nnn3c2nc(N2CCCC(C)C2)c2cc(Cl)ccc23)cc1 (centres undefined) | inactive |
| CCOC(=O)Cc1ccc(NC(=O)N2CC(CC)Oc3ccccc32)cc1 (centres undefined) | inactive |
| Cc1nc2c(nc1C)C(=O)c1ccccc1C2=O | inconclusive: 14.1 µM [inhibitor, partial curve, poor fit] |
| CCOc1ccc(OCCC(=O)N(CC(=O)Nc2ccccc2C(F)(F)F)Cc2ccco2)cc1 | inconclusive: 20 µM [inhibitor, full curve, poor fit] |
| Cc1ccc2nc(-c3ccc(NC(=O)c4ccco4)cc3)[nH]c2c1 | inconclusive: 79.4 µM [inhibitor, partial curve, poor fit] |
| C=C1CSc2nc(=O)c3c4c(sc3n21)CCCC4 | inconclusive: 20 µM [inhibitor, full curve] |
| COc1cc(C=O)ccc1Oc1nc(Nc2ccc(F)cc2F)nc(N2CCOCC2)n1 | inconclusive: 44.7 µM [inhibitor, partial curve, poor fit] |
| COc1cccc(-c2nc(-c3ccc(NC(=O)Cc4ccccc4OC)cc3)no2)c1 | inconclusive: 3.98 µM [inhibitor, full curve, poor fit] |
| Cc1ccc(C(=O)NNC(=O)Cc2ccccc2)cc1 | inactive |
| CC1=C(C(=O)OCc2ccc3c(c2)OCO3)C(c2ccc(O)c([N+](=O)[O-])c2)NC(=O)N1 (centres undefined) | inconclusive: 31.6 µM [inhibitor, partial curve, poor fit] |
